{
  "source": "PubChem BioAssay AID1030",
  "about": "(National Center for Advancing Translational Sciences (NCATS), 2008)",
  "note": "The campaign covered roughly 220,000 compounds. About 16,000 (7.3%) were called active. The inconclusive results got no clear call from the source; some entries with a clear call stand among them for comparison. The call rests on the fitted dose curve; in most records, active means well fitted inhibition curve with a large enough effect (not every such curve was filed as active); inconclusive means small, poorly fitted or top-dose-only effect, or another doubt; inactive means no such curve, though single readings can be large or run the other way. Potencies of inconclusive entries are left out as doubtful fits. Potency means the concentration at half of the fitted maximal effect; tags describe the fitted curve by direction and shape.",
  "data": [
    {"biological_target": "Aldehyde dehydrogenase 1A1 (Homo sapiens) (UniProt P00352)", "sequence (P00352 whole entry, looked up)": "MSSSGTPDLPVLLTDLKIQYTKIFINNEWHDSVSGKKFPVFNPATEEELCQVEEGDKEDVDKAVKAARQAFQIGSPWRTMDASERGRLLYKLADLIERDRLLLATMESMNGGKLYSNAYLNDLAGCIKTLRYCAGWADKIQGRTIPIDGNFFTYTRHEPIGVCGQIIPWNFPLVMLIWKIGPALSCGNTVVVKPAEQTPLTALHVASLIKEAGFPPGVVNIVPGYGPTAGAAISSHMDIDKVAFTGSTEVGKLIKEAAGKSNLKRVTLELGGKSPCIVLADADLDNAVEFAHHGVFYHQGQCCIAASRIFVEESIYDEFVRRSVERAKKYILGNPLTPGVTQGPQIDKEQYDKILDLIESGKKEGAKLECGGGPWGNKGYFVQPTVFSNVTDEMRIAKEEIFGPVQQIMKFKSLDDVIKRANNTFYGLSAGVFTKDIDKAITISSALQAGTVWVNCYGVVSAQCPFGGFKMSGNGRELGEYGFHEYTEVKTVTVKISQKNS", "assay": "qHTS Assay for Inhibitors of Aldehyde Dehydrogenase 1 (ALDH1A1);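 on activity, negative = inhibition: plate controls were no enzyme wells and a reference inhibitor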", "settings": "Purified ALDH1A1, NADH fluorescence, propionaldehyde substrate; series mostly up to 75.3 µM", "values": [
      {"compound": "O=C(O)c1ccc(-c2nc(-c3ccccc3)c(-c3ccccc3)[nH]2)cc1", "Potency": "inconclusive [inhibitor, partial curve]"},
      {"compound": "Cc1cc(C)cc(NC(=O)C(OC(=O)c2ccc([N+](=O)[O-])o2)c2ccccc2)c1", "note": "(stereo unspecified)", "Potency": "inconclusive [inhibitor, single point]"},
      {"compound": "O=C(CNC(=S)N(Cc1ccccc1)Cc1ccccc1F)NCc1ccccc1", "Potency": "active: 10 µM"},
      {"compound": "COc1cc([N+](=O)[O-])ccc1NC(=O)CSc1nc2ccccc2n1-c1ccccc1", "Potency": "active: 10 µM"},
      {"compound": "O=S(=O)(Nc1nc2ccccc2nc1NCC1CCCO1)c1cccs1", "note": "(stereo unspecified)", "Potency": "inconclusive [inhibitor, single point]"},
      {"compound": "CCOC(=O)C1=NN(N=O)C2(CC(=O)N(c3cc(C)cc(C)c3)C2=O)C1", "note": "(stereo unspecified)", "Potency": "inconclusive [inhibitor, single point]"},
      {"compound": "CC(=O)Nc1cccc(N2C(=O)CC(N3CCC(C(=O)N4CCCCC4)CC3)C2=O)c1", "note": "(stereo unspecified)", "Potency": "inconclusive [inhibitor, single point]"},
      {"compound": "Cc1ccsc1CNC(=O)c1c(-c2ccccc2)noc1C", "Potency": "inactive"},
      {"compound": "O=C1CCCN2N=C(SCC(=O)N3N=C(c4ccc(Br)cc4)CC3c3ccc(F)cc3)SC2=N1", "note": "(stereo unspecified)", "Potency": "inconclusive [inhibitor, single point]"},
      {"compound": "CN(C)CCCN1c2ccc3ccccc3c2Sc2cccc(Cl)c21", "activity, negative = inhibition": "inactive: -0.162% [at 13.5 µM]"},
      {"compound": "O=C(NCCc1cnn(-c2ccccc2)c1)c1cc(COc2c(F)cccc2F)on1", "Potency": "inactive"},
      {"compound": "N#C/C(=C\\N1CCOCC1)c1ccccc1", "Potency": "inconclusive [inhibitor, single point]"},
      {"compound": "COc1ccccc1NC(=O)CCSc1nc(C)cc(C)n1", "Potency": "inconclusive [inhibitor, single point]"},
      {"compound": "COc1cc(CC(=O)OCC(=O)Nc2cccc([N+](=O)[O-])c2)cc(OC)c1OC", "Potency": "inactive"},
      {"compound": "C/C(=N\\NC(=O)C1CC1)c1ccc(Cl)cc1", "Potency": "inactive"},
      {"compound": "Cc1cc(NCCO)c2cc(O)ccc2n1", "Potency": "inconclusive [inhibitor, single point]"},
      {"compound": "CCCCN1C(=O)c2ccc(C(=O)Nc3ccc(S(=O)(=O)N(C)C)cc3)cc2C1=O", "Potency": "active: 1.78 µM"},
      {"compound": "O=S(=O)(c1ccc2ccccc2c1)N1CCN(C(=S)Nc2ccc(F)cc2)CC1", "Potency": "inconclusive [inhibitor, partial curve]"},
      {"compound": "OC(COCc1cccs1)CN1CCCCCC1", "note": "(stereo unspecified)", "Potency": "inconclusive [inhibitor, single point]"},
      {"compound": "COc1ccc(NC(=O)Cc2nn(C)c(=O)c3ccccc23)c2ncccc12", "Potency": "inconclusive [inhibitor, single point]"},
      {"compound": "O=C(O)Cn1cnc2c(=S)nc[nH]c21", "Potency": "inconclusive [inhibitor, single point]"},
      {"compound": "COC(=O)c1ccc(CSc2ncnc3sc(C)c(C)c23)o1", "Potency": "inconclusive [inhibitor, single point]"},
      {"compound": "Cc1nnc(NC(=O)C2COc3ccccc3O2)s1", "note": "(stereo unspecified)", "Potency": "inactive"},
      {"compound": "CCOC(=O)N1CCc2c(sc(NC(=O)CN3CCN(C)CC3)c2C(=O)Nc2ccccc2)C1", "Potency": "active: 14.1 µM"},
      {"compound": "CC(C)CC1=NN2C(=N)/C(=C\\c3coc4ccccc4c3=O)C(=O)N=C2S1", "Potency": "active: 11.2 µM"},
      {"compound": "COc1ccc(-c2nnc(SCC(=O)c3cc(C)n(Cc4cccs4)c3C)o2)cc1", "Potency": "inconclusive [inhibitor, single point]"},
      {"compound": "Cc1ccc(OCc2ccc(C(=O)Nc3c(C)nn(Cc4c(F)c(F)c(F)c(F)c4F)c3C)o2)c([N+](=O)[O-])c1", "Potency": "inconclusive [inhibitor, single point]"},
      {"compound": "COCCCNC(=O)C1CCN(S(=O)(=O)c2c(C)noc2/C=C\\c2ccc(OC)cc2)CC1", "Potency": "inconclusive [inhibitor, single point]"},
      {"compound": "Cc1c(CC(C)C)nc(N)c(C#N)c1-c1ccccc1", "Potency": "inconclusive [inhibitor, single point]"},
      {"compound": "COc1ccc(S(=O)(=O)N2CCOCC2)cc1NC(=O)CCc1c[nH]c2ccccc12", "Potency": "active: 14.1 µM"},
      {"compound": "CC(=O)Nc1sc2c(c1CN1CCN(c3ccc(F)cc3)CC1)CCCC2", "Potency": "inconclusive [inhibitor, single point]"},
      {"compound": "COc1ccc(CNc2cc(-c3ccccc3Cl)ncn2)c(OC)c1", "Potency": "inactive"},
      {"compound": "CC(=O)Nc1ccc(S(=O)(=O)N[C@H](C(=O)O)C(C)C)cc1", "Potency": "active: 10 µM"},
      {"compound": "COC(=O)c1ccccc1NC(=O)CCCn1nc([N+](=O)[O-])cc1C", "Potency": "inconclusive [inhibitor, partial curve, poor fit]"},
      {"compound": "CCOC(=O)N1CCN(C(=O)CCC(=O)N2CCOc3ccc(C)cc32)CC1", "Potency": "active: 25.1 µM"},
      {"compound": "CC(NC(=O)/C=C/c1ccccc1)c1ccccc1", "note": "(stereo unspecified)", "Potency": "inactive"},
      {"compound": "C/C(CC(=O)Nc1ccccn1)=N\\NC(=O)c1ccccc1", "Potency": "inactive"},
      {"compound": "CC1CCCCC1NC(=O)COC(=O)c1ccccc1NC(=O)c1ccco1", "note": "(stereo unspecified)", "Potency": "inconclusive [inhibitor, single point]"},
      {"compound": "CCCc1ccc(OCc2ccc(C(=O)O)o2)c(OC)c1", "Potency": "inconclusive [inhibitor, single point]"},
      {"compound": "CCC(C)c1ccc(NC(=S)NCCn2cc(Cl)cn2)cc1", "note": "(stereo unspecified)", "Potency": "inconclusive [inhibitor, single point]"},
      {"compound": "CC(C)NC[C@H](O)c1ccc(O)c(O)c1", "Potency": "inconclusive [inhibitor, partial curve]"},
      {"compound": "Cc1ccc2ncc(NC(=O)c3ccc(F)cc3)c(=O)n2c1", "Potency": "inconclusive [inhibitor, single point]"},
      {"compound": "CCN=C1S/C(=C\\c2cc(Br)ccc2OCC(=O)OCC)C(=O)N1CC", "Potency": "inconclusive [inhibitor, single point]"},
      {"compound": "COc1ccccc1NC(=S)N(Cc1ccccc1)Cc1cccs1", "Potency": "inactive"},
      {"compound": "O=C(Nc1c(Cl)cc(Cl)cc1-c1nc2ccccc2s1)c1ccc(Br)o1", "Potency": "inconclusive [inhibitor, single point]"},
      {"compound": "COc1ccc(-c2nc3c(c4nnc(SC(C)C(=O)Nc5ccc(C)cc5)n24)COC(C)(C)C3)cc1", "note": "(stereo unspecified)", "Potency": "inconclusive [inhibitor, partial curve]"},
      {"compound": "CCc1ccc(/C=N/NC(=O)c2cc(-c3ccccc3OC)nc3ccccc23)s1", "Potency": "inconclusive [inhibitor, single point]"},
      {"compound": "Cn1cc(-c2nc3cnc(Oc4cccc(Cl)c4)nc3n(C3CC3)c2=O)c2ccccc21", "Potency": "inactive"},
      {"compound": "CN(C)S(=O)(=O)Nc1cc(Cl)cc(Cl)c1", "Potency": "inactive"},
      {"compound": "CCCCC1=CC2=C(c3ccco3)C(=O)C(C)(OC(=O)c3ccc(OC)cc3)C(=O)C2=CN1Cc1ccco1", "note": "(stereo unspecified)", "Potency": "inconclusive [inhibitor, single point]"},
      {"compound": "CN(C)c1ncc2nc(CCc3ccccc3)c(=O)n(CCC#N)c2n1", "Potency": "inconclusive [inhibitor, single point]"},
      {"compound": "COC(=O)COc1nc(C)c2c(c1C#N)CC(C)(C)OC2", "Potency": "inconclusive [inhibitor, single point]"},
      {"compound": "CCC(C)C(=O)Nc1nc(C)c(-c2csc(Nc3ccc(Cl)cc3)n2)s1", "note": "(stereo unspecified)", "Potency": "active: 22.4 µM"},
      {"compound": "O=C(/C=C/c1ccc([N+](=O)[O-])cc1)NCc1ccco1", "Potency": "inactive"},
      {"compound": "COCC(C)NS(=O)(=O)c1ccccc1", "note": "(stereo unspecified)", "Potency": "inactive"},
      {"compound": "CN1CCN(C(=O)CSc2nc(-c3cccs3)ccc2C#N)CC1", "Potency": "inconclusive [inhibitor, partial curve]"},
      {"compound": "COc1ccc(NS(=O)(=O)c2ccc(NC(=S)NC(=O)c3ccc(Br)cc3)cc2)nn1", "Potency": "inconclusive [inhibitor, single point]"},
      {"compound": "Cc1coc2c1c(C)cc1oc(=O)c(Cc3ccccc3)c(C)c12", "Potency": "inconclusive [inhibitor, full curve]"},
      {"compound": "CC(=O)Nc1ccc(NC(=O)COC(=O)c2ccco2)cc1", "Potency": "inactive"},
      {"compound": "COc1ccc2c(-c3ccccc3)cc(N3CCOCC3)nc2c1", "Potency": "inconclusive [inhibitor, single point]"},
      {"compound": "Cc1ccc2nc(-c3ccncc3)cc(-c3ccccc3)c2c1", "Potency": "inconclusive [inhibitor, single point]"},
      {"compound": "Cn1c(=O)c(=O)n(C)c2cc(S(=O)(=O)N3CCOCC3)ccc21", "Potency": "inconclusive [inhibitor, partial curve]"},
      {"compound": "O=C(CN1CCCC1)N1CCN(c2ccccc2)CC1", "Potency": "inconclusive [inhibitor, single point]"},
      {"compound": "Cc1nc(-c2ccc(NC(=O)c3cccs3)cc2)cs1", "Potency": "inconclusive [inhibitor, single point]"},
      {"compound": "COc1ccc(N(CC(=O)NCCC2=CCCCC2)S(=O)(=O)c2ccccc2)cc1OC", "Potency": "inconclusive [inhibitor, single point]"},
      {"compound": "Cc1cc2cc(CNC(=O)c3cccs3)ccc2[nH]1", "Potency": "inconclusive [inhibitor, partial curve]"},
      {"compound": "CCCC1=NN2C(=N)/C(=C\\c3cc(C)n(-c4cccc(C)c4)c3C)C(=O)N=C2S1", "Potency": "inconclusive [inhibitor, partial curve]"},
      {"compound": "COc1ccc(Cl)cc1NC(=S)N(Cc1ccc(C(=O)O)cc1)Cc1ccc(OC)c(OC)c1", "Potency": "inconclusive [inhibitor, single point]"},
      {"compound": "COc1ccc(C2(C(=O)N3CCCC3)CCOCC2)cc1OC", "Potency": "inactive"},
      {"compound": "O=C(Nc1cccn(Cc2ccccc2)c1=O)NC1CCCCC1", "Potency": "inconclusive [inhibitor, single point]"},
      {"compound": "CC1(C)Cc2c(sc3nnn(Cc4ccc(Cl)cc4)c(=O)c23)CO1", "Potency": "inactive"}
    ]}
  ]
}
